Source: PubChem BioAssay AID652104 (National Center for Advancing Translational Sciences (NCATS), 2013)
Hit rate of the full screen: of about 410,000 compounds, about 7,200 (1.8%) were called active. The shares of active, inactive and inconclusive entries below differ from those in the screen. The call rests on the fitted dose curve; in most records, active means well fitted activation curve with a large enough effect; inconclusive means small, poorly fitted or top-dose-only effect, or another doubt; inactive means no such curve, though single readings can be large or run the other way. Potencies of inconclusive entries are left out as doubtful fits.

test: qHTS of TDP-43 Inhibitors; conditions: TDP-43 expressing yeast growth rescue, BacTiter-Glo, 24 h; growth rescue (activation): at 46.1 µM (top of the series) unless noted; further: nearly all actives have a fitted effect of over 50% in size; on growth rescue (activation): % of control where 0% means no effect
Outline: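 Growth rescue of TDP-43-toxic yeast measured as ATP luminescence (BacTiter-Glo). Cells grown to mid-log in raffinose, induced in galactose at OD600=0.02, exposed to compound 24 hr at 30 deg C.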
Potency means the concentration at half of the fitted maximal effect; tags describe the fitted curve by direction and shape.

Row | Compound | Potency | growth rescue (activation)
1 | CCOc1ccc2nc(SC3CC(=O)N(c4cccc(OC)c4)C3=O)sc2c1 (stereo not given) | inconclusive [activator, partial curve] | 
2 | Oc1ccc(Cl)cc1CNc1cccc2cccnc12 |  | inconclusive: -37% [activator]
3 | N#CCCN(C(=S)Nc1ccc(Cl)c(Cl)c1)C1CCCCC1 | inconclusive [activator, partial curve] | 
4 | CCOC(=O)C1CCN(C(=O)c2cc3c(C)cc(C)cc3[nH]2)CC1 | inconclusive [activator, partial curve] | 
5 | COc1ccc(-c2cc(NC(C)=O)c3ncc(-c4cccc(C(C)=O)c4)n3c2)cc1OC | inconclusive [activator, partial curve] | 
6 | COc1ccc(Br)c2oc(SC)cc(=O)c12 | inconclusive [activator, partial curve, poor fit] | 
7 | FC(F)(F)c1nnc2c3ccccc3c(Cl)nn12 | inconclusive [activator, partial curve] | 
8 | Cc1ccc(CC(=O)O/N=C(\N)c2ccccn2)cc1 | inconclusive [activator, single point] | 
9 | Fc1ccc(Oc2nnnn2-c2ccccc2)cc1 |  | inactive: 20.4%
10 | CCc1noc(C)c1C(=O)Nc1nc(-c2ccccc2)cs1 | active: 11.2 µM | 
11 | O=C(COc1cccnc1[N+](=O)[O-])Nc1cccc2ccccc12 | inconclusive [activator, single point] | 
12 | CCOC(=O)C1C(=O)CC(C)(O)C(C(=O)OCC)C1c1cc(Br)ccc1OC (stereo not given) | inconclusive [activator, partial curve] | 
13 | O=C(c1ccc(F)cc1)N1CCC(C(=O)N(Cc2ccccc2)c2ccccc2)CC1 | inconclusive [activator, single point] | 
14 | COc1ccc(/C=C/C(=O)NC(=S)NNC(=O)c2ccco2)cc1OC |  | inactive: 13.2%
15 | c1ccc(-c2nnc(N3CCOCC3)nc2-c2ccccc2)cc1 | inconclusive [activator, single point] | 
16 | Cc1oc2c(c1C(=O)NCc1cccnc1)C(=O)c1ccccc1C2=O | active: 35.5 µM | 
17 | Cc1cc(C)n2c(SCc3ccc(C#N)cc3)nnc2n1 | active: 22.4 µM | 
18 | CC1C=CC=CC=CC=CC=CC=CC=CC(OC2OC(C)C(O)C(N)C2O)CC2OC(O)(CC(O)CC(O)C(O)CCC(O)CC(O)CC(=O)OC(C)C(C)C1O)CC(O)C2C(=O)O (stereo not given) |  | inconclusive: -93.6% [activator]
19 | COCCNC(=O)C1CCCN(C(=O)c2csc3ccccc23)CC1 (stereo not given) | inconclusive [activator, full curve, poor fit] | 
20 | Cc1ccc(NC(=O)CN2C(=O)C(c3ccc(F)cc3)=NC2(C)C)c(C)c1 | inconclusive [activator, partial curve] | 
21 | Cc1cccc(C(C)n2nnc3ccccc32)c1O (stereo not given) | inconclusive [activator, single point] | 
22 | O=C(c1ccc(F)cc1)C1CCN(C(=S)Nc2ccc(F)cc2)CC1 | active: 22.4 µM | 
23 | Cc1ccc(C(=O)C(OC(=O)CCC(=O)Nc2cccc(C)c2)c2ccccc2)cc1 (stereo not given) |  | inactive: -11.6%
24 | Clc1ccc(-c2noc3ncnc(N4CCCCC4)c23)cc1 | inconclusive [activator, partial curve] | 

Row | Compound | Potency | growth rescue (activation)
25 | Cc1ccccc1NC(=O)CSc1nc2ccc(NC(=O)c3ccco3)cc2s1 | inconclusive [activator, single point] | 
26 | O=C(Cc1cccs1)Nc1cccc([N+](=O)[O-])c1 | inconclusive [activator, partial curve] | 
27 | CC(=NNC(N)=S)c1ccc2cc3c(cc2c1)OCO3 | inconclusive [activator, partial curve] | 
28 | O=C(O)COc1ccc(Cl)cc1C1CCCCC1 | inconclusive [activator, full curve] | 
29 | CCCCC[C@@H](C)N1C[C@@H](COCc2ccccc2)Oc2cc(N3CC[C@@H](N(C)C)C3)ccc2S1(=O)=O | inconclusive [activator, partial curve] | 
30 | N/C(=N\OC(=O)/C=C/c1ccccc1Cl)c1ccccn1 | inconclusive [activator, single point] | 
31 | CSc1ncc(C(=O)Nc2cccc(Cl)c2)c(C)n1 | inconclusive [activator, partial curve, poor fit] | 
32 | Cc1[nH]c2ccccc2c1/C=N/NC(=S)NC(C)C | inconclusive [activator, single point] | 
33 | COc1cccc(NC(=O)Nc2cc(-c3cn4cccnc4n3)ccc2OC)c1 |  | inactive: 21.6%
34 | CC(=O)Nc1ccc(Nc2ccc(S(=O)(=O)C(F)(F)F)cc2[N+](=O)[O-])cc1 | inconclusive [activator, single point] | 
35 | CCOC(=O)c1ccc(NC(=O)Nc2ccccn2)cc1 | inconclusive [activator, partial curve] | 
36 | O=C(NCC(c1ccco1)S(=O)(=O)c1cccs1)c1ccc(C(F)(F)F)cc1 (stereo not given) |  | inactive: 0% [at 9.22 µM]
37 | CCCCCCSc1nnc(N)s1 | inconclusive [activator, single point] | 
38 | CCOc1cc(Cl)c(S(=O)(=O)n2cc(C)nc2CC)cc1Cl | inconclusive [activator, single point] | 
39 | O=C(OCc1ccccc1Cl)c1ccc(-n2cnnc2)cc1 | active: 12.6 µM | 
40 | Cc1cc(C)c2nc(NNC(=O)c3ccc(S(=O)(=O)N4CCCC(C)C4)cc3)sc2c1 (stereo not given) | inconclusive [activator, partial curve] | 
41 | N#Cc1ccsc1NC(=O)C1CC(=O)N(Cc2ccccc2)C1 (stereo not given) |  | inactive: -12.1%
42 | COc1ccc(Nc2nc(N3CCOCC3)nc(N3CCOCC3)n2)cc1Cl | active: 15.8 µM | 
43 | CSCCC(NC(=O)COc1ccccc1)C(=O)N(C)Cc1ccc(SC)cc1 (stereo not given) | inconclusive [activator, single point] | 
44 | Clc1ccc(/C=N/NC(=Nc2ccccc2)c2ccccn2)c(Cl)c1 | inconclusive [activator, single point] | 
45 | Cc1ccsc1C(=O)OCC(=O)N1CC(C)CC(C)C1 (stereo not given) | inconclusive [activator, single point] | 
46 | CC1CCN(C(=O)c2[nH]cnc2C(=O)N[C@@H](Cc2ccccc2)C(=O)OC(C)(C)C)CC1 | inconclusive [activator, partial curve] | 
47 | CCOc1ccc(CSCCNC(=S)Nc2ccccc2)cc1 | inconclusive [activator, partial curve] | 
48 | CC(C)(CO)[C@@H](O)C(=O)NCCC(=O)O | inconclusive [activator, full curve, poor fit] | 

Row | Compound | Potency | growth rescue (activation)
49 | Cc1ccc(C2Nc3cccc4cccc(c34)N2)cc1 | inconclusive [activator, single point] | 
50 | CC1Cc2ccccc2N1C(=O)CO/N=C/c1ccccc1OC(F)F (stereo not given) | inconclusive [activator, partial curve, poor fit] | 
51 | CC1COC(=O)C(NNc2ccc(Cl)c(Cl)c2)=N1 (stereo not given) | active: 3.55 µM | 
52 | CC(OC(=O)CCN1C(=O)C2CC=CCC2C1=O)C(=O)c1ccc(F)cc1 (stereo not given) |  | inactive: 4.01%
53 | O=C1c2ccccc2NC(c2cccc(F)c2)N1Cc1ccccc1 (stereo not given) | inconclusive [activator, partial curve] | 
54 | CCN1CCCC1CN(Cc1cc2ccc(C)cc2[nH]c1=O)C(=S)Nc1ccc(F)cc1 (stereo not given) | inconclusive [activator, single point] | 
55 | CCCCOC(=O)c1ccc(Nc2nc3ccc(C)cc3n3cnnc23)cc1 |  | inactive: 5.69%
56 | COc1ccc(Nc2nc(C)c(-c3ccccc3)s2)cc1 | active: 12.6 µM | 
57 | NC1=NC[C@@H](Cc2ccc(O)cc2)N1CCC12CC3CC(CC(C3)C1)C2 | inconclusive [activator, partial curve] | 
58 | CCOc1ccc(CCNC(=O)CCSCc2cccc(Cl)c2)cc1OCC | active: 22.4 µM | 
59 | CCc1nc(NC(C)(C)C)c2cnn(-c3ccccc3)c2n1 | inconclusive [activator, partial curve] | 
60 | CCc1ccc(C(=O)c2cn(Cc3ccccc3)c3cc(OC)c(OC)cc3c2=O)cc1 |  | inactive: 21.7%
61 | COc1ccc(-c2coc3c(C(=O)NCC4CCOCC4)cccc23)c(C)c1 | inconclusive [activator, single point] | 
62 | COc1cc(/C=C2/C(=N)N3C=CSC3=NC2=O)ccc1OCCCOc1ccccc1C | inconclusive [activator, single point] | 
63 | CC(=NNc1nc2ccccc2o1)c1ncccn1 |  | inconclusive: -72.2% [activator]
64 | Cc1nc(-c2ccccc2)sc1C(=O)Nc1ccccc1F | active: 12.6 µM | 
65 | COc1ccc(CC(=O)N/N=C/c2sccc2C)cc1 | inconclusive [activator, partial curve] | 
66 | O=C(CC(=O)Nc1ccccc1F)Nc1ccc2nc3n(c(=O)c2c1)CCCCC3 |  | inactive: 13.5%
67 | COc1ccc(OC)c(NC(=O)c2cnc3n(c2=O)CCS3)c1 | inconclusive [activator, partial curve] | 
68 | Cc1ccc2nc(N3CCN(C(=O)CCCC(=O)O)CC3)nc(-c3ccccc3)c2c1 |  | inactive: 24.6%
69 | COC(=O)c1sccc1NC(=O)CN(C)NS(=O)(=O)c1ccc(Cl)cc1 | inconclusive [activator, full curve, poor fit] | 
70 | COc1ccc(NC(=O)Nc2nnc(Cc3ccc(F)cc3)s2)cc1 |  | inactive: -22.1%
